Test results from the supplement of paper PMC10670038.
Structures can show the parent of a compound that is named as a salt. ± gives the standard deviation of the averaged measurements. Whole data set: some 2,000 compounds, median “relative cell viability vs DMSO, compound alone” near 1.1, cut for the lowest 2% near 0.29. The list shows a part of the results.

These compounds were tested on TE10 (assay: relative cell viability vs DMSO, compound alone (fraction); TE10 is an esophageal squamous carcinoma line; higher = less cytotoxic). Details: 2 µM; 48 h.
Procedure: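 TE10 ESCC cells (1,000/well, 384-well plates) were treated with Selleck bioactive library compounds at 2 uM alone for 48 h. Viability was read by CellTiter-Glo and expressed relative to DMSO wells. Two technical replicates (A, B).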

`COc1cc2nccc(Oc3ccc(NC(=O)Nc4ccc(F)cc4F)c(F)c3)c2cc1OC` and `COc1cc(NC(=O)c2ccc(-c3ccc(Cl)cc3)o2)cc(OC)c1` are the same in relative cell viability: 1.17 ± 0.027 for the first, 1.17 ± 0.013 for the second.

First: C[C@]12C=CC(=O)C=C1CC[C@@H]1[C@@H]2C(=O)C[C@@]2(C)[C@H]1CC[C@]2(O)C(=O)CO [Prednisone]
Second: CC(=O)OCC(=O)[C@@]1(O)CC[C@H]2[C@@H]3CCC4=CC(=O)CC[C@]4(C)[C@H]3C(=O)C[C@@]21C [Cortisone acetate]
The relative cell viability of the first is lower: 0.968 ± 0.037 for the first, 1.17 ± 0.078 for the second.

`COC(=O)CC[C@H](NC(=O)[C@H](CC(=O)OC)NC(=O)OCc1ccccc1)C(=O)N[C@H](C(=O)N[C@@H](CC(=O)OC)C(=O)CF)C(C)C` and `CC(C)C[C@H](NP(=O)(O)O[C@@H]1O[C@@H](C)[C@H](O)[C@@H](O)[C@H]1O)C(=O)N[C@@H](Cc1c[nH]c2ccccc12)C(=O)O` [Phosphoramidon Disodium Salt] are within error of each other in relative cell viability: 1.17 ± 0.014 for the first, 1.18 ± 0.053 for the second.

First: CCOC(=O)CCC(=O)O[C@H]1[C@H](O[C@@H]2[C@@H](C)[C@H](O[C@H]3C[C@@](C)(OC)[C@@H](O)[C@H](C)O3)[C@@H](C)C(=O)O[C@H](CC)[C@@](C)(O)[C@H](O)[C@@H](C)C(=O)[C@H](C)C[C@@]2(C)O)O[C@H](C)C[C@@H]1N(C)C [Erythromycin Ethylsuccinate]
Second: CCCCC(=O)O[C@]1(C(=O)CO)[C@@H](C)C[C@H]2[C@@H]3CCC4=CC(=O)C=C[C@]4(C)[C@@]3(F)[C@@H](O)C[C@@]21C [Betamethasone valerate (Betnovate)]
The relative cell viability of the first is higher: 1.13 ± 0.14 for the first, 0.865 ± 0.078 for the second.

`C[C@@H]1CN(c2c(F)c(N)c3c(=O)c(C(=O)O)cn(C4CC4)c3c2F)C[C@H](C)N1` [Sparfloxacin] and `CCn1cc(C(=O)O)c(=O)c2cc(F)c(N3CCN(C)CC3)cc21` [Pefloxacin Mesylate] are within error of each other in relative cell viability: 1.02 ± 0.064 for the first, 1.076 ± 0.0036 for the second.

Compared with `CCNC(=O)c1noc(-c2cc(Cl)c(O)cc2O)c1-c1ccc(OC)cc1`, `COc1ccc([C@@H]2CC(=O)c3c(O)cc(O)cc3O2)cc1O` [Hesperetin] is higher in relative cell viability: 0.607 ± 0.044 for the first, 1.1 ± 0.022 for the second.

`CCOC(=O)c1ccc(N2NC(=O)C(=Cc3ccc([N+](=O)[O-])o3)C2=O)cc1` and `O=C(N/N=C/c1ccc([N+](=O)[O-])o1)c1ccc(O)cc1` [Nifuroxazide] are within error of each other in relative cell viability: 1.01 ± 0.16 for the first, 1.09 ± 0.072 for the second.

`CCn1cc(C(=O)O)c(=O)c2cc(F)c(N3CCN(C)CC3)cc21` [Pefloxacin Mesylate Dihydrate] and `CN1CCN(C2=Nc3ccccc3Oc3ccc(Cl)cc32)CC1` [Loxapine Succinate] are within error of each other in relative cell viability: 1.03 ± 0.026 for the first, 1.01 ± 0.026 for the second.

`CCc1cc(C(N)=S)ccn1` [Ethionamide] and `CC(c1cc2ccccc2s1)N(O)C(N)=O` (centres undefined) [Zileuton] are within error of each other in relative cell viability: 1.07 ± 0.062 for the first, 1.1 ± 0.065 for the second.

Compared with `Cn1cc(C2=C(c3ccc(Cl)cc3Cl)C(=O)NC2=O)c2ccccc21`, `O=C1C(=O)N(Cc2ccc(Cl)c(Cl)c2)c2ccccc21` [Apoptosis Activator 2] is lower in relative cell viability: 1.27 ± 0.039 for the first, 1.05 ± 0.0069 for the second.

First: OCc1ccc(O[C@@H]2O[C@H](CO)[C@@H](O)[C@H](O)[C@H]2O)cc1 [Gastrodin]
Second: OC[C@H]1O[C@@H](OCCc2ccc(O)cc2)[C@H](O)[C@@H](O)[C@@H]1O [Salidroside]
The relative cell viability of the first is higher: 1.12 ± 0.075 for the first, 1.01 ± 0.018 for the second.

Going from `O=C(NC(NC(=S)Nc1ccc(F)c([N+](=O)[O-])c1)C(Cl)(Cl)Cl)C(c1ccccc1)c1ccccc1` (centres undefined) to `O=C(Nc1cccc(Cl)c1)c1ccccn1`, the relative cell viability rises from 0.881 ± 0.11 to 1.11 ± 0.032.

Compared with `Cc1cccc(Nc2cc(Cl)nc(SCC(=O)O)n2)c1C`, `CC(C)(C)c1cc(C(=O)C(C#N)=NNc2cccc(Cl)c2)no1` is lower in relative cell viability: 1.18 ± 0.021 for the first, 0.99495 ± 0.00057 for the second.

Going from `Cc1cc(NC(=O)c2cccc(NC(=O)/C=C/CN(C)C)c2)ccc1Nc1nccc(-c2cccnc2)n1` to `Cc1c(C(=O)Nc2ccc(Oc3ccnc4[nH]cc(-c5ccccc5)c34)c(F)c2)c(=O)n(-c2ccc(F)cc2)n1C`, the relative cell viability rises from 0.708 ± 0.036 to 1 ± 0.027.

`Cc1cn([C@@H]2C[C@@H](O)[C@H](CO)O2)c(=O)[nH]c1=O` [Telbivudine] and `O=c1[nH]c(=O)n([C@H]2C[C@H](O)[C@@H](CO)O2)cc1F` [Floxuridine] are within error of each other in relative cell viability: 1.09 ± 0.06 for the first, 1.15 ± 0.077 for the second.

Going from `COc1cc2c(cc1NS(=O)(=O)c1ccc(Br)cc1C)n(C)c(=O)n2C` to `COc1c(C)c(C(=O)c2ccc(N)c(C(=O)O)c2)n2ccccc12`, the relative cell viability falls from 1.17 ± 0.07 to 1.04 ± 0.041.

Compared with `CCOC(=O)NCCCC(=O)NCCc1ccccc1`, `Nc1c(CC(=O)O)cccc1C(=O)c1ccccc1` [Amfenac Sodium Monohydrate] is lower in relative cell viability: 1.1 ± 0.031 for the first, 0.954 ± 0.034 for the second.

First: CCC[C@H](NC(=O)/C(C#N)=C/c1cccc(Br)n1)c1ccccc1 [Degrasyn (WP1130)]
Second: CN(C)CCC=C1c2ccccc2C=Cc2ccccc21 [Cyclobenzaprine HCl]
The relative cell viability of the first is lower: 0.206 ± 0.019 for the first, 1.12 ± 0.022 for the second.

Going from `COC(=O)c1ccc2c(c1)[nH]c1ncnc(NCCCN3CCCCC3)c12` to `C[C@@]1(C(=O)Nc2ccc(F)nc2)CCCN1c1nc(Nc2cc(C3CC3)n[nH]2)c2cccn2n1`, the relative cell viability falls from 0.964 ± 0.03 to 0.665 ± 0.042.

Compared with `C[C@H]1[C@H](NC(=O)/C(=N\OC(C)(C)C(=O)O)c2csc(N)n2)C(=O)N1S(=O)(=O)O` [Aztreonam], `CC(C)(C)C(=O)Nc1ccc2c(c1)C(=O)C(=O)c1ccccc1-2` is lower in relative cell viability: 1.15 ± 0.059 for the first, 0.0653 ± 0.0041 for the second.

`CCc1c2c(nc3ccc(OC(=O)N4CCC(N5CCCCC5)CC4)cc13)-c1cc3c(c(=O)n1C2)COC(=O)[C@]3(O)CC` [Irinotecan] and `CC1=C(C(=O)OC2CCCCC2)C(c2ccc([N+](=O)[O-])cc2)C2=C(CC(C)(C)CC2=O)N1` (centres undefined) are within error of each other in relative cell viability: 1.26 ± 0.051 for the first, 1.15 ± 0.14 for the second.

Compared with `CCc1c2c(nc3ccc(OC(=O)N4CCC(N5CCCCC5)CC4)cc13)-c1cc3c(c(=O)n1C2)COC(=O)[C@]3(O)CC` [Irinotecan HCl Trihydrate], `COc1cc2nc(N3CCN(C(=O)C4CCCO4)CC3)nc(N)c2cc1OC` (centres undefined) [Terazosin HCl] is lower in relative cell viability: 1.2 ± 0.022 for the first, 0.963 ± 0.024 for the second.

Going from `CN1CCN(c2cccc(Nc3nc4c(-c5ccc(S(C)(=O)=O)cc5)cccn4n3)c2)CC1` to `CNC(=O)c1nn(C)c2c1C(C)(C)Cc1cnc(Nc3ccc(N4CCN(C)CC4)cc3)nc1-2`, the relative cell viability falls from 0.994 ± 0.049 to 0.907 ± 0.021.

`CN[C@@H](C)C(=O)N[C@H](C(=O)N1CCC[C@H]1C(=O)Nc1snnc1-c1ccccc1)C1CCCCC1` and `CN[C@@H](C)C(=O)N[C@H](C(=O)N1CCC[C@H]1c1nc(C(=O)c2ccc(F)cc2)cs1)C1CCCCC1` are within error of each other in relative cell viability: 0.9403 ± 0.0033 for the first, 0.954 ± 0.011 for the second.

`CC(C)(O)CC[C@@H](O)[C@](C)(O)[C@H]1CC[C@@]2(O)C3=CC(=O)[C@@H]4C[C@@H](O)[C@@H](O)C[C@]4(C)[C@H]3CC[C@]12C` [20-Hydroxyecdysone] and `C[C@@H]1C(=O)O[C@H]2C[C@@]34[C@H]5C[C@@H](C(C)(C)C)[C@]36[C@@H](OC(=O)[C@@H]6O)O[C@@]4(C(=O)O5)[C@]21O` [Ginkgolide A] are within error of each other in relative cell viability: 1.056 ± 0.0032 for the first, 0.972 ± 0.085 for the second.

`CC(Oc1cc(-c2cnn(C3CCNCC3)c2)cnc1N)c1c(Cl)ccc(F)c1Cl` [(S)-crizotinib] and `CCCc1cc(C)[nH]c(=O)c1CNC(=O)c1cc(-c2ccc(N3CCN(C(C)C)CC3)nc2)cc2c1cnn2C(C)C` are within error of each other in relative cell viability: 1.16 ± 0.043 for the first, 1.13 ± 0.022 for the second.

`FC(F)(F)c1ccc(/C=C/c2nc(COc3ccc(CCCCn4ccnn4)cc3)co2)cc1` [Mubritinib (TAK 165)] and `CCOC(=O)[C@@H](N)Cc1ccc(-c2cc(O[C@H](c3ccc(Cl)cc3-n3ccc(C)n3)C(F)(F)F)nc(N)n2)cc1` [Telotristat Etiprate (LX 1606 Hippurate)] are within error of each other in relative cell viability: 1.06 ± 0.03 for the first, 1.037 ± 0.01 for the second.

First: CN(C)CCCOc1nn(Cc2ccccc2)c2ccccc12 [Benzydamine HCl]
Second: C[N+]1(C)CCC(=C(c2ccccc2)c2ccccc2)CC1 [Diphemanil Methylsulfate]
The relative cell viability of the first is higher: 1.11 ± 0.088 for the first, 0.918 ± 0.097 for the second.

`O=C1c2c(O)cc(O)cc2OC(c2ccc(O)c(O)c2)C1O` (centres undefined) [Taxifolin (Dihydroquercetin)] and `O=C1c2cccc(O)c2C(=O)c2c(O)cc(CO)cc21` [Aloe-emodin] are within error of each other in relative cell viability: 1.08 ± 0.02 for the first, 1.13 ± 0.062 for the second.

`OC[C@@H](O)[C@@H](O)[C@H](O)[C@@H](O)CO` [Sorbitol] and `NC(=O)c1ncn([C@@H]2O[C@H](CO)[C@@H](O)[C@H]2O)c1N` [Acadesine] are within error of each other in relative cell viability: 1.13 ± 0.019 for the first, 1.07 ± 0.041 for the second.

Compared with `COc1cc(C)c(/C=C/C(C)=C/C=C/C(C)=C/C(=O)O)c(C)c1C` [Acitretin], `COc1cc(/C=C/C(=O)O)ccc1O` [Ferulic Acid] is lower in relative cell viability: 1.16 ± 0.053 for the first, 0.993 ± 0.098 for the second.

First: CC(C)(F)C[C@H](N[C@@H](c1ccc(-c2ccc(S(C)(=O)=O)cc2)cc1)C(F)(F)F)C(=O)NC1(C#N)CC1 [Odanacatib (MK-0822)]
Second: N#Cc1ccc(C(c2ccc(C#N)cc2)n2cncn2)cc1 [Letrozole]
The relative cell viability of the first is lower: 0.941 ± 0.12 for the first, 1.16 ± 0.013 for the second.

First: CN(C)CCc1c[nH]c2ccc(C[C@H]3COC(=O)N3)cc12 [Zolmitriptan]
Second: COc1c2occc2cc2ccc(=O)oc12 [Methoxsalen]
The relative cell viability of the first is higher: 1.03 ± 0.056 for the first, 0.9204 ± 0.0057 for the second.

`NS(=O)(=O)c1cc2c(cc1Cl)NCNS2(=O)=O` [Hydrochlorothiazide] and `CC(=O)Oc1ccccc1C(=O)Nc1ncc([N+](=O)[O-])s1` [Nitazoxanide] are within error of each other in relative cell viability: 1.05 ± 0.059 for the first, 0.992 ± 0.036 for the second.

Compared with `O=C(NC1CCOCC1)c1ccc(-c2cc(-c3c[nH]nc3-c3ccccn3)ccn2)cc1`, `COc1ccc(-c2ccc3c(N4CCOC[C@@H]4C)nc(N4CCOC[C@@H]4C)nc3n2)cc1CO` is lower in relative cell viability: 1.21 ± 0.098 for the first, 0.4942 ± 0.0022 for the second.

`NC(=O)c1ccc(N(C(N)=O)c2c(F)cccc2F)nc1-c1ccc(F)cc1F` and `N=C(NCCCCCCNC(=N)NC(=N)Nc1ccc(Cl)cc1)NC(=N)Nc1ccc(Cl)cc1` [Chlorhexidine HCl] are within error of each other in relative cell viability: 1.05 ± 0.015 for the first, 1.08 ± 0.019 for the second.

`CCCCCCCCCCCCCCCC(=O)OCC(O)C1OC(=O)C(O)=C1O` [L-Ascorbyl 6-palmitate] and `CC(C)CC(N)=O` [Isovaleramide] are within error of each other in relative cell viability: 1.14 ± 0.031 for the first, 1.1 ± 0.057 for the second.
